# Measured values taken from the supplement of paper PMC7826260.
# The other results are listed elsewhere or left out. One pool of 16,384 single-stranded DNAs met each Rep nickase domain in vitro at 3 µM enzyme and 37 °C for 1 h; the strands have 90 letters, of which the middle is given. The score is log2 (uncut reads / reads without enzyme); more negative means more cut, near 0 not cut, and no call is made. The scaling is to total reads; uncut strands gain when others are lost, and binding without cutting may add a little.
# Columns and labels:
# Experiment in all cases: uncleaved DNA left, log2 of reads against the no-enzyme library (log2 ratio); higher = less cleavage (more negative = more Rep cleavage of the k-mer); sequences stand for … in CTCGTCCG…ACCGGAGA
# [1] = system: T1, Rep nickase domain of Muscovy duck circovirus
# T1 sequence (Rep 1-111, printed without the tag): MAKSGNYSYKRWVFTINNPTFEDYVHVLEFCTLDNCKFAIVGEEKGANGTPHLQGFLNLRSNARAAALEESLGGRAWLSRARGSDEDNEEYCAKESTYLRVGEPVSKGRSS
# Description: (§1)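 A pool of 90-nt single-stranded DNAs with seven random bases just before the constant AC of the nick site (name = the seven bases) was cut by 3 µM recombinant His6-SUMO-tagged Rep nickase domain (300 nM DNA, 50 mM HEPES pH 8.0, 50 mM NaCl, 1 mM MnCl2, 1 h, 37 °C, three replicates). Uncut DNA was amplified and sequenced.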
# [2] = system: T2, Rep nickase domain of banana bunchy top virus
# T2 sequence (Rep 1-94, printed without the tag): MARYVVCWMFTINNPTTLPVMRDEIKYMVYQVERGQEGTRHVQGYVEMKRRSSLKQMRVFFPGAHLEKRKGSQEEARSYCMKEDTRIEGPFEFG
# Description: as §1
# [3] = system: T3, Rep nickase domain of cabbage leaf curl virus
# T3 sequence (Rep 1-116, printed without the tag): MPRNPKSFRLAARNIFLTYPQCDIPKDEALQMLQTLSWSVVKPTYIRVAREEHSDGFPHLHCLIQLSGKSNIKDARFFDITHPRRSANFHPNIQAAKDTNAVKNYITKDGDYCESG
# Description: as §1
# [4] = system: T4, Rep nickase domain of chickpea chlorotic dwarf virus
# T4 sequence (Rep 1-124, printed without the tag): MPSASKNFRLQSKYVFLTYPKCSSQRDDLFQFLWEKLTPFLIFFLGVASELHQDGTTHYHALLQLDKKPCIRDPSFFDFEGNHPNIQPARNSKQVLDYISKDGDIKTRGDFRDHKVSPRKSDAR
# Description: as §1
# [5] = system: T5, Rep nickase domain of faba bean necrotic yellows virus
# T5 sequence (Rep 1-98, printed without the tag): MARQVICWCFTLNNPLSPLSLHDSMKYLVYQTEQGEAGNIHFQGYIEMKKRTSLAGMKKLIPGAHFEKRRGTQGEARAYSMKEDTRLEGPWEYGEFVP
# Description: as §1
# [6] = system: T6, Rep nickase domain of maize striate mosaic virus
# T6 sequence (Rep 1-117, printed without the tag): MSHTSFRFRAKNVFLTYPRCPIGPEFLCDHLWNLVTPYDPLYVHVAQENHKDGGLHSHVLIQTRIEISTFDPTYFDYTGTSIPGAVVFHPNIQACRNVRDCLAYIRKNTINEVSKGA
# Description: as §1
# [7] = system: T7, Rep nickase domain of porcine circovirus 2
# T7 sequence (Rep 2-116, printed without the tag): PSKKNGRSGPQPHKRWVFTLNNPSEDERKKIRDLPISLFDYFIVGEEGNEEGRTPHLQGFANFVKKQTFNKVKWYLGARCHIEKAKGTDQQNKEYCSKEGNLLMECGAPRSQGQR
# Description: as §1
# [8] = system: T8, Rep nickase domain of tomato golden mosaic virus
# T8 sequence (Rep 1-124, printed without the tag): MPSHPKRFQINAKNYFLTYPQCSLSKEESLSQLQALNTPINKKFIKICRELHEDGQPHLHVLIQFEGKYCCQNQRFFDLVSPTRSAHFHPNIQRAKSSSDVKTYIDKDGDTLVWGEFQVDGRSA
# Description: as §1
# [9] = system: T9, Rep nickase domain of tomato yellow leaf curl virus
# T9 sequence (Rep 1-136, printed without the tag): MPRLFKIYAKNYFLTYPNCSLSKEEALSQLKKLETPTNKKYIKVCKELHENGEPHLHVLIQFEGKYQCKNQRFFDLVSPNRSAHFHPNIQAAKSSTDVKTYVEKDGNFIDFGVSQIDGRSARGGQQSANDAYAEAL
# Description: as §1
# [10] = system: T10, Rep nickase domain of wheat dwarf virus
# T10 sequence (Rep 1-137, printed without the tag): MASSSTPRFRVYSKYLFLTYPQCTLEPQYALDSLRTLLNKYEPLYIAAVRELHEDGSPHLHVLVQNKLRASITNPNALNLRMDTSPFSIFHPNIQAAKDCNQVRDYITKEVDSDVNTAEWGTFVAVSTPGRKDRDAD
# Description: as §1
Sequence,uncleaved DNA left (log2) [1],uncleaved DNA left (log2) [2],uncleaved DNA left (log2) [3],uncleaved DNA left (log2) [4],uncleaved DNA left (log2) [5],uncleaved DNA left (log2) [6],uncleaved DNA left (log2) [7],uncleaved DNA left (log2) [8],uncleaved DNA left (log2) [9],uncleaved DNA left (log2) [10]
GGACGCG,0.000292,0.0851,-0.686,0.161,-0.0468,-0.46,0.101,-0.0818,-0.0758,-0.149
GGTCTTT,0.0385,0.02,0.483,0.978,-0.0945,1.87,-0.0572,-0.0599,0.0953,0.111
TCTGTTA,-0.0223,-0.0629,0.151,-0.794,-0.0925,-0.0476,-0.178,-0.0244,0.023,0.0271
TTCGCCA,-0.113,-0.0268,0.0162,-0.861,-0.0305,-0.553,-0.197,-0.089,-0.12,-0.0634
GTAGCCG,-0.0976,-0.0867,-0.815,-0.581,-0.0464,-1.03,0.0621,-0.0805,-0.0347,-0.135
GCCCTAG,-0.0825,-0.085,-0.523,-0.347,-0.204,-1,-0.0104,-0.0078,0.00751,-0.265
ACATGTA,-0.0666,-0.0357,-0.334,-1.09,-0.0895,-0.856,-0.0817,0.0962,-0.0529,-0.0363
TCATTCA,-0.0886,0.0284,-0.102,-1.16,0.0653,-1.03,-0.154,-0.0425,0.0494,0.0287
TTGGCTC,-0.194,-0.177,0.0778,-0.537,-0.0651,-0.318,-0.202,-0.116,-0.0202,-0.435
CCCGGAC,-0.127,-0.162,0.341,0.984,-0.21,1.21,-0.0818,-0.0889,-0.22,-0.179
GACGGTT,-0.000489,-0.242,0.171,-0.161,-0.165,1.05,-0.227,-0.0589,-0.306,-0.00537
GGGCCCA,-0.0606,0.0283,0.703,1.68,-0.114,2.08,0.117,-0.128,0.0187,-0.00785
ATTCAAC,-0.185,-0.0463,-0.227,-1.82,0.000192,-0.842,-0.0619,-0.0614,-0.18,-0.114
TGCACGC,-0.0884,-0.0428,-0.0823,-0.0597,-0.09,-0.296,-0.023,-0.216,-0.0151,0.00624
GTACAGC,0.158,0.137,0.516,1.05,-0.0236,1.33,0.227,0.119,0.119,0.161
GCAGGAT,0.0525,-0.164,0.31,1.52,0.0864,1.77,0.177,0.108,-0.0145,0.00231
CTAGTCT,-0.0824,-0.0588,-0.289,-2.08,-0.00992,-0.892,-0.137,-0.14,-0.174,-0.175
TCAATCA,0.166,0.149,0.205,-0.992,0.17,0.702,0.121,0.104,0.293,0.272
GTAAGCG,0.0179,-0.0534,-0.721,0.52,-0.0242,-0.559,0.196,-0.0139,0.00485,-0.0796
GGTGCTA,0.0239,0.0918,0.622,1.33,0.0206,1.9,0.21,0.125,0.136,0.15
CGATTAC,0.00104,-0.121,-0.22,-1.4,-0.0966,-0.702,-0.0717,-0.143,-0.106,-0.0754
AGAAAGC,0.0452,-0.00915,-0.148,-0.178,0.0323,-0.937,0.12,0.0911,0.0192,0.0242
GCTCTAG,-0.067,-0.137,-0.707,-0.483,-0.0629,-0.995,0.0366,-0.113,-0.124,-0.234
TAGACGC,0.0968,0.0862,0.0329,0.0568,-0.0865,-0.332,0.0319,-0.159,0.11,0.0737
TGTGGCG,-0.0333,-0.03,-0.567,0.733,0.012,-0.264,0.0871,0.00606,-0.0103,-0.151
TCTCGTA,-0.0951,-0.0333,-0.0792,-0.879,0.0275,-0.757,-0.13,-0.0173,0.0169,-0.116
TCGGTTT,0.00811,-0.19,0.0897,-0.547,-0.115,1.06,-0.159,-0.0635,0.0252,-0.169
CGTGGTA,0.0887,0.0541,0.156,0.373,-0.0278,0.812,0.00153,0.115,0.0513,0.0259
CTCTCTA,-0.0947,0.0883,-0.0158,-1.09,-0.0278,-0.431,-0.152,0.0147,0.0548,-0.0551
GAGGATA,0.0658,0.198,0.68,1.67,0.0388,2,0.18,0.139,0.0774,0.297
